{
  "source": "the BET-seq Pho4 binding data (Le et al. 2018)",
  "note": "Some of the results follow. The energies were worked out here from pooled read counts, against the library average; single values are noisy.",
  "data": [
    {"molecular_target": "T1, Pho4 (S. cerevisiae) (UniProt P07270)", "T1 sequence": "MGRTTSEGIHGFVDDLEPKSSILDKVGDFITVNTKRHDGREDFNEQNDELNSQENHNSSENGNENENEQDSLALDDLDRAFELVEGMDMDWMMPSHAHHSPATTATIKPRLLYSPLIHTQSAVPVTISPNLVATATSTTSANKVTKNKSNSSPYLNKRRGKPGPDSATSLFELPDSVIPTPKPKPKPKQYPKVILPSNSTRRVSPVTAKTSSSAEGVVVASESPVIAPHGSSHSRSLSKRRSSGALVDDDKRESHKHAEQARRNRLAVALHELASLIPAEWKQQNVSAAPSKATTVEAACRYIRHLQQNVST", "test": "relative binding free energy (BET-seq); higher = weaker binding", "details": "reference: library average", "units": {"relative binding free energy": "kcal/mol"}, "values": [
      {"sequence": "GAAAGCACGTGGTAGT", "relative binding free energy": -0.06},
      {"sequence": "TTGCGCACGTGTCTGG", "relative binding free energy": -0.09},
      {"sequence": "TGCGGCACGTGTAGTG", "relative binding free energy": -0.02},
      {"sequence": "TTACGCACGTGTTATT", "relative binding free energy": -0.1},
      {"sequence": "GTTTTCACGTGGGTCA", "relative binding free energy": 0.29},
      {"sequence": "ATTTGCACGTGGGTTG", "relative binding free energy": -0.02},
      {"sequence": "GAGTGCACGTGTAGAA", "relative binding free energy": 0.1},
      {"sequence": "CATATCACGTGATTGG", "relative binding free energy": 0.12},
      {"sequence": "ATAGTCACGTGATTGA", "relative binding free energy": 0.09},
      {"sequence": "CGCATCACGTGGTGTG", "relative binding free energy": -0.01},
      {"sequence": "TAGTTCACGTGTAAGC", "relative binding free energy": 0.38},
      {"sequence": "TCCAACACGTGGGTGG", "relative binding free energy": 0},
      {"sequence": "TACTTCACGTGTGGCG", "relative binding free energy": 0.29},
      {"sequence": "TAAAGCACGTGTTTTT", "relative binding free energy": -0.03},
      {"sequence": "TTTCGCACGTGTAGTC", "relative binding free energy": 0.22},
      {"sequence": "CATGGCACGTGGGGTG", "relative binding free energy": -0.25},
      {"sequence": "ATTGGCACGTGTGAGC", "relative binding free energy": -0.06},
      {"sequence": "TGATACACGTGTTGTG", "relative binding free energy": 0.11},
      {"sequence": "AAAGTCACGTGGCGGG", "relative binding free energy": 0.1},
      {"sequence": "TGTGGCACGTGGAGTC", "relative binding free energy": -0.03},
      {"sequence": "TGGGGCACGTGAGCGT", "relative binding free energy": 0.04},
      {"sequence": "GATAGCACGTGTTGTT", "relative binding free energy": 0.07},
      {"sequence": "GTTCTCACGTGTATTG", "relative binding free energy": 0.26},
      {"sequence": "CTCGGCACGTGAGGTT", "relative binding free energy": 0.13},
      {"sequence": "GTTGACACGTGGGGAT", "relative binding free energy": -0.06},
      {"sequence": "TGATACACGTGGGGAT", "relative binding free energy": 0.05},
      {"sequence": "GCGTTCACGTGTCCGG", "relative binding free energy": 0.39},
      {"sequence": "GTTGGCACGTGCGGGG", "relative binding free energy": -0.04},
      {"sequence": "CAAGGCACGTGGGGTC", "relative binding free energy": -0.14},
      {"sequence": "AGTTGCACGTGTGCAT", "relative binding free energy": -0.03},
      {"sequence": "TGTTACACGTGTAGTG", "relative binding free energy": 0.17},
      {"sequence": "TGCGGCACGTGTTGCT", "relative binding free energy": -0.02},
      {"sequence": "CGTGACACGTGCGGGG", "relative binding free energy": -0.18},
      {"sequence": "GTGGGCACGTGTGTCT", "relative binding free energy": -0.05},
      {"sequence": "GGTTGCACGTGGGGTT", "relative binding free energy": -0.01},
      {"sequence": "AATGGCACGTGCATGT", "relative binding free energy": -0.18},
      {"sequence": "TGTGTCACGTGATGAA", "relative binding free energy": 0.24},
      {"sequence": "CCGTACACGTGGTGGG", "relative binding free energy": -0.05},
      {"sequence": "GTTAGCACGTGCCGGT", "relative binding free energy": 0.08},
      {"sequence": "ATGCGCACGTGGGTAA", "relative binding free energy": -0.11},
      {"sequence": "CTGTGCACGTGGTGAT", "relative binding free energy": -0.1},
      {"sequence": "TTTTGCACGTGATCAT", "relative binding free energy": -0.09},
      {"sequence": "CGGGGCACGTGGATTG", "relative binding free energy": 0},
      {"sequence": "TGAGGCACGTGTGCAG", "relative binding free energy": -0.11},
      {"sequence": "CTGTGCACGTGTTGGG", "relative binding free energy": 0.03},
      {"sequence": "AGTCGCACGTGTGTCG", "relative binding free energy": -0.06},
      {"sequence": "GTAGACACGTGACGGG", "relative binding free energy": 0.21},
      {"sequence": "ATTTGCACGTGTAAAG", "relative binding free energy": 0.06},
      {"sequence": "AGGTGCACGTGAGGTT", "relative binding free energy": 0.25},
      {"sequence": "GTCGGCACGTGATGTG", "relative binding free energy": 0.19},
      {"sequence": "CGGTGCACGTGCTGTA", "relative binding free energy": -0.06},
      {"sequence": "TATGGCACGTGACAGG", "relative binding free energy": -0.12},
      {"sequence": "CGCTTCACGTGGTAGG", "relative binding free energy": 0.32},
      {"sequence": "GTAGTCACGTGGAATA", "relative binding free energy": 0.23},
      {"sequence": "CGAGGCACGTGGGTCT", "relative binding free energy": -0.09},
      {"sequence": "TTTTTCACGTGGTCTG", "relative binding free energy": 0.27},
      {"sequence": "TTTTTCACGTGCAGCT", "relative binding free energy": 0.13},
      {"sequence": "GGTTACACGTGCTGTA", "relative binding free energy": 0},
      {"sequence": "TGCGGCACGTGGGAAT", "relative binding free energy": -0.18},
      {"sequence": "CATGGCACGTGTTTTT", "relative binding free energy": -0.03},
      {"sequence": "CTTGTCACGTGTCTTT", "relative binding free energy": 0.02},
      {"sequence": "AAATGCACGTGTTCGG", "relative binding free energy": -0.05},
      {"sequence": "GATTACACGTGTGGGT", "relative binding free energy": 0.25},
      {"sequence": "TGTGCCACGTGTGGTG", "relative binding free energy": -0.11},
      {"sequence": "AGTGGCACGTGAGGAG", "relative binding free energy": 0.16},
      {"sequence": "TGGGTCACGTGTTCTC", "relative binding free energy": 0.09},
      {"sequence": "GTAAGCACGTGGTAGA", "relative binding free energy": -0.05},
      {"sequence": "ACGTGCACGTGGACGG", "relative binding free energy": 0},
      {"sequence": "GATAACACGTGGGGTT", "relative binding free energy": -0.02},
      {"sequence": "GGGTACACGTGTCTTA", "relative binding free energy": 0.15},
      {"sequence": "TATCGCACGTGGAAGT", "relative binding free energy": 0.06},
      {"sequence": "TTGTGCACGTGGACTG", "relative binding free energy": -0.03},
      {"sequence": "TCTGTCACGTGTAAGG", "relative binding free energy": 0.25},
      {"sequence": "AACGGCACGTGGGGTC", "relative binding free energy": -0.25},
      {"sequence": "GGTAACACGTGAACGT", "relative binding free energy": 0.39},
      {"sequence": "GTCTGCACGTGGGCTG", "relative binding free energy": -0.02},
      {"sequence": "TAGGACACGTGGAAAG", "relative binding free energy": 0.19},
      {"sequence": "GTTATCACGTGACGTA", "relative binding free energy": 0.26},
      {"sequence": "AGGGACACGTGCTTTG", "relative binding free energy": -0.15},
      {"sequence": "ATTATCACGTGGGGAA", "relative binding free energy": 0.02},
      {"sequence": "AGTTACACGTGGGATT", "relative binding free energy": 0.09},
      {"sequence": "GATCGCACGTGGCTGG", "relative binding free energy": 0.04},
      {"sequence": "TGTGTCACGTGGGCTC", "relative binding free energy": -0.18},
      {"sequence": "GTTATCACGTGGATGC", "relative binding free energy": 0.04},
      {"sequence": "CTGGGCACGTGTTGTT", "relative binding free energy": -0.11},
      {"sequence": "AGCGGCACGTGGTTTT", "relative binding free energy": -0.04},
      {"sequence": "TGTTACACGTGCTGGA", "relative binding free energy": 0.15},
      {"sequence": "TTGATCACGTGTCGGA", "relative binding free energy": 0.29},
      {"sequence": "GGGGTCACGTGATATA", "relative binding free energy": 0.31},
      {"sequence": "TGACACACGTGTTTTG", "relative binding free energy": 0.05},
      {"sequence": "TGGTCCACGTGTCAGG", "relative binding free energy": 0.12},
      {"sequence": "GATATCACGTGCAGGT", "relative binding free energy": 0.08},
      {"sequence": "CGTGACACGTGTGGCT", "relative binding free energy": 0.14},
      {"sequence": "GGTTGCACGTGCGTGC", "relative binding free energy": -0.07},
      {"sequence": "TGGGCCACGTGGTTTA", "relative binding free energy": -0.1},
      {"sequence": "GGGGACACGTGGTTTA", "relative binding free energy": -0.05},
      {"sequence": "CTCGGCACGTGAAGGG", "relative binding free energy": 0.17},
      {"sequence": "AGATGCACGTGGTATA", "relative binding free energy": -0.12},
      {"sequence": "TGGCGCACGTGAAAGG", "relative binding free energy": 0.1},
      {"sequence": "AAGTGCACGTGTAAAG", "relative binding free energy": 0.09},
      {"sequence": "ACTCTCACGTGTGGGT", "relative binding free energy": 0.25},
      {"sequence": "CTTGGCACGTGCGTTA", "relative binding free energy": -0.23},
      {"sequence": "CTTGGCACGTGTATAA", "relative binding free energy": -0.04},
      {"sequence": "CGGTTCACGTGTGCGG", "relative binding free energy": 0.23},
      {"sequence": "TCAGGCACGTGTTGGC", "relative binding free energy": -0.09},
      {"sequence": "GTGGTCACGTGACAGG", "relative binding free energy": 0.18},
      {"sequence": "AGGATCACGTGTTTTT", "relative binding free energy": 0.14},
      {"sequence": "CGTTACACGTGTGTGG", "relative binding free energy": 0.02},
      {"sequence": "GTAATCACGTGTTGGC", "relative binding free energy": 0.19},
      {"sequence": "TATATCACGTGTTAAA", "relative binding free energy": 0.08},
      {"sequence": "GGAATCACGTGGTGCT", "relative binding free energy": 0.04},
      {"sequence": "GACGCCACGTGGGGGT", "relative binding free energy": -0.28},
      {"sequence": "ATTTTCACGTGTGTAA", "relative binding free energy": 0.24},
      {"sequence": "TGAGGCACGTGTAACT", "relative binding free energy": 0.07},
      {"sequence": "TGAGTCACGTGTGGGT", "relative binding free energy": 0.23}
    ]}
  ]
}
